In PubChem BioAssay AID686978 (National Center for Advancing Translational Sciences (NCATS), 2013):
Screen size: about 420,000 compounds; about 64,000 (15%) were called active. The shares of active, inactive and inconclusive entries below differ from those in the screen. The call rests on the fitted dose curve; in most records, active means well fitted inhibition curve with a large enough effect; inconclusive means small, poorly fitted or top-dose-only effect; inactive means flat fitted curve, though single readings scatter. No potency is given beside an inconclusive call; the fits are too rough.

Assay: qHTS for Inhibitors of human tyrosyl-DNA phosphodiesterase 1 (TDP1): qHTS in cells in absence of CPT; further: nearly all actives have a fitted effect of over 55% in size
Details: DT40 Tdp1-/- hTDP1 cells, no CPT, ATP luminescence, 48 h; activity change, negative = growth inhibition: at 46.2 µM (top of the series) unless noted
Method in brief: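 Growth of hTDP1-complemented DT40 Tdp1-knockout cells is measured by ATP luminescence after at least 48 hr compound exposure at 37 °C, with DMSO substituting for the 20 nM CPT used in the parallel screen.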
On the % scale 0 is the no-effect control and ±100 the full control effect; potency means the concentration at half of the fitted maximal effect; tags describe the fitted curve by direction and shape.

Row | SMILES | activity change, negative = growth inhibition | Potency
1 | O=C(Cn1cc(/C=N/NC(=O)c2cccc(C(F)(F)F)c2)c2ccccc21)Nc1ccc(F)cc1 | inconclusive: -34.3% [inhibitor] | –
2 | CCOC(=O)[C@H](CCc1ccccc1)N[C@H]1CS[C@H](c2cccs2)CN(CC(=O)O)C1=O | – | inconclusive [inhibitor, single point]
3 | Cc1cccc(NS(=O)(=O)c2cccc(C(=O)N3CCN(S(=O)(=O)c4ccccc4)CC3)c2)c1 | – | inconclusive [inhibitor, single point]
4 | Cc1ccccc1CCNC(=O)c1ccc(Cn2c(=O)c3cccn3c3cccnc32)cc1 | – | active: 18.4 µM
5 | Cc1ccc(NC(=O)CN2C(=O)NC3(CCCc4ccccc43)C2=O)cc1S(=O)(=O)N1CCOCC1 (stereo not given) | – | inconclusive [inhibitor, single point]
6 | Nc1nc(N)nc(-c2cc(O)ccc2O)n1 | – | active: 5.8 µM
7 | O=C(O)C1C2C=CC(O2)C1C(=O)Nc1ccc(S(=O)(=O)Nc2ccccc2)cc1 (stereo not given) | – | inconclusive [inhibitor, single point]
8 | Cc1c(Cl)cccc1NC(=O)c1cccc(NC(=O)N2CCSc3ncccc32)c1 | – | inconclusive [inhibitor, single point]
9 | COc1ccc(C(=O)N2CCC[C@@]3(CCN(c4ccccc4)C3)C2)cc1 | – | inconclusive [inhibitor, single point]
10 | COC(=O)c1cc(CNC(=O)c2cnsn2)cc(NC(=O)c2ccccc2OC)c1 | – | inconclusive [inhibitor, partial curve, poor fit]
11 | O=C(N/N=C/c1cccc(NC(=O)c2ccc(Cl)cc2)c1)c1ccc(O)cc1 | – | active: 14.6 µM
12 | COc1ccc(-c2nc3cc(C)ccn3c2NCc2ccc3c(c2)OCO3)cc1 | – | inconclusive [inhibitor, single point]
13 | Cc1ccc(Cn2c(C)c(C(=O)NCC(C)C)sc2=O)cc1 | – | inconclusive [inhibitor, single point]
14 | CC(NC(=O)c1ccc2c(c1)CCN2S(C)(=O)=O)c1ccccc1 (stereo not given) | – | inconclusive [inhibitor, partial curve]
15 | Cc1cc(N/N=C/c2c(O)ccc3ccccc23)nc(-c2ccccc2O)n1 | – | active: 2.59 µM
16 | Cc1cc(NC(=O)Nc2ccccc2F)ccc1Br | – | inconclusive [inhibitor, partial curve, poor fit]
17 | O=C1OCCN1C(=O)[C@H]1[C@H](c2ccc(Cl)cc2)C(c2cccc(Cl)c2)=NN1c1ccccc1 | – | inconclusive [inhibitor, single point]
18 | CCCC#CCN1CCN(C23CC4CC(CC(C4)C2)C3)CC1 | – | inactive
19 | NC(=O)c1cc[n+](Cc2ccc([N+](=O)[O-])cc2)cc1 | – | inactive
20 | Nc1ccc(C(=O)NC23CC4CC(CC(C4)C2)C3)cc1 | – | inconclusive [inhibitor, single point]
21 | COc1ccccc1NC(=O)Nc1nnc([C@@H]2C[C@H](O)[C@@H](CO)O2)s1 | – | inactive
22 | O=C(O)c1oc2ccccc2c1CSCc1ccccc1 | – | inconclusive [inhibitor, single point]
23 | CCOc1ccc(NC(=O)CSC2=Nc3ccccc3C3=NC(CCC(=O)NCc4ccccc4)C(=O)N23)cc1 (stereo not given) | – | active: 16.4 µM
24 | COCCNC(=O)C1CC(c2cccc(OC)c2)=NO1 (stereo not given) | inconclusive: -17.6% [inhibitor] | –

Row | SMILES | activity change, negative = growth inhibition | Potency
25 | Cc1ccc(CNC(=O)c2ccc3c(c2)nc(C)n3-c2cccc(F)c2)cc1 | – | inconclusive [inhibitor, single point]
26 | Cc1ccccc1OCc1nnc(SCc2cc(=O)[nH]c3ccccc23)n1-c1ccccc1 | – | inconclusive [inhibitor, single point]
27 | CCNc1nc(NC(C)C)nc(SCCOC(=O)c2ccccc2)n1 | – | inconclusive [inhibitor, single point]
28 | O=C(Cc1c(O)c2ccccc2[nH]c1=O)N(Cc1ccccc1)Cc1ccccc1 | – | inactive
29 | N=c1sccn1CC(=O)Nc1ccc([N+](=O)[O-])cc1Cl | – | inactive
30 | COc1ccc(N2C3=C(C(=O)CC(C)(C)C3)C(c3cnn(C)c3)C3=C2CC(C)(C)CC3=O)cc1 | – | inconclusive [inhibitor, full curve]
31 | Cn1cccc1C(=O)N1CCC2(CC1)CN(c1cccc(-c3ccccc3)c1)C2 | – | active: 16.4 µM
32 | O=C(NN(Cc1ccccc1)Cc1ccccc1)c1ccccc1 | – | inconclusive [inhibitor, single point]
33 | O=C(Nc1cccc(/C=C/c2ccccn2)c1)c1ccc(-n2cncn2)cc1 | – | inconclusive [inhibitor, partial curve]
34 | CC(C)CCNC(=S)Nc1ccc(F)cc1 | – | inactive
35 | Cc1ccc(NC(=O)c2ccc(CSc3nnc(-c4ccncc4)n3C)cc2)cc1 | – | inactive
36 | CC(C)N1CCN(c2ccc(OCC3COC(Cn4cncn4)(c4ccc(Cl)cc4Cl)O3)cc2)CC1 (stereo not given) | – | inconclusive [inhibitor, single point]
37 | CCOC(=O)N1CCN(C(=O)/C=C/c2ccc(OC)c(OC)c2)CC1 | – | inactive
38 | COc1ccc2ccccc2c1CN1CCN(C(=O)c2ccccc2)CC1 | – | active: 14.6 µM
39 | COc1nc(Nc2ccc([N+](=O)[O-])cc2)nc(NC(C)C)n1 | – | inconclusive [inhibitor, single point]
40 | Cc1cc(C(F)(F)F)n2nc(-c3ccc(Br)cc3)cc2n1 | – | inconclusive [inhibitor, single point]
41 | CCCCCNC(=O)c1cccnc1SCC(=O)Nc1ccccc1OC | – | inconclusive [inhibitor, single point]
42 | O=C(CSc1nnc(-c2ccccn2)o1)Nc1ccccc1C(F)(F)F | – | inactive
43 | CCCCOc1ccc(-c2nn(-c3ccccc3)cc2C2NC(=O)NC(C)=C2C(=O)OCC)cc1 (stereo not given) | – | inconclusive [inhibitor, single point]
44 | CCOc1cc(Br)ccc1S(=O)(=O)NCc1ccccc1 | – | inconclusive [inhibitor, single point]
45 | Cc1ccc(S(=O)(=O)NC(N)=NCCc2ccc(Cl)cc2)cc1C | – | inactive
46 | O=C(CCn1cnc2ccccc21)N=Nc1c(O)[nH]c2ccccc12 | – | inactive
47 | CCOC(=O)[C@]12CCC=C1N(Cc1ccco1)C(=O)[C@H](CC(=O)N1CCCCC1)C2 | – | inactive
48 | CCN(c1ccccc1)S(=O)(=O)c1cc(C(=O)Nc2ccc(F)c(F)c2)ccc1F | – | inconclusive [inhibitor, single point]

Row | SMILES | activity change, negative = growth inhibition | Potency
49 | COC(=O)c1[nH]c2ccc(C)cc2c1NS(=O)(=O)c1ccc(F)cc1 | – | inconclusive [inhibitor, single point]
50 | CCCN(CCC)CC(=O)Nc1cccc2c1OCO2 | – | inactive
51 | COc1ccc2[nH]cc(CCNc3ncncc3-c3ccccc3OC)c2c1 | – | inconclusive [inhibitor, single point]
52 | O=C(c1cc2ccccc2oc1=O)N1CCN(c2ccc(Cl)cc2)CC1 | – | active: 20.6 µM
53 | Cc1cc(C)cc(C(=O)N2CCN=C2c2ccccc2)c1 | – | inconclusive [inhibitor, single point]
54 | Nc1nc(O)c2ncn([C@H]3CC[C@@H](CO)O3)c2n1 | – | inconclusive [inhibitor, single point]
55 | CC1=NOC(=O)/C1=C\c1ccc2c(c1)OCO2 | – | active: 14.6 µM
56 | CN(C)CCCN(C(=O)COc1ccccc1)c1nc2ccc(Cl)cc2s1 | – | inconclusive [inhibitor, single point]
57 | CC1(C)Cc2c(sc3nnn(Cc4ccccc4)c(=O)c23)CO1 | – | inconclusive [inhibitor, single point]
58 | CCOC(=O)C1CCCN(C(=O)COc2ccc(C(=O)c3ccccc3)cc2)C1 (stereo not given) | – | active: 23.1 µM
59 | O=C(CSc1nnnn1-c1ccccc1)Nc1ncc2c(n1)CC(c1ccccc1)CC2=O (stereo not given) | – | inconclusive [inhibitor, single point]
60 | COCCNC(=O)CSc1ccc(C)cc1 | – | inactive
61 | C[C@H](CO)N1C[C@H](C)[C@@H](CN(C)C(=O)CN2CCOCC2)Oc2ncc(-c3cncnc3)cc2C1=O | inconclusive: -28.9% [inhibitor] | –
62 | CCc1ccc(C(=O)c2cn(CC(=O)Nc3cccc(OC)c3)c3ccc(OC)cc3c2=O)cc1 | – | active: 23.1 µM
63 | Cc1cc(N(C)/N=C/c2ccccc2O)nc(-c2ccccc2O)n1 | – | active: 4.11 µM
64 | Cc1ccc(S(=O)(=O)C(C#N)c2nc3ccccc3nc2N2CCC(C)CC2)cc1 (stereo not given) | – | inconclusive [inhibitor, partial curve, poor fit]
65 | COc1cc(/C=N/NC(=O)COc2c(C)cc([N+](=O)[O-])cc2C)ccc1OC(=O)c1ccccc1Br | – | inconclusive [inhibitor, partial curve]
66 | COc1ccc(NC(=O)CSc2nc3[nH]c(=O)cc(O)c3s2)c(OC)c1 | – | inactive
67 | COc1ccc(OCC(=O)NCc2ccc3c(c2)CCN3C(=O)c2ccccc2)cc1 | – | active: 13 µM
68 | COc1ccc(CN2CCN(CCSc3ccc(C)cc3)CC2)c(OC)c1OC | – | inconclusive [inhibitor, single point]
69 | COc1ccc(C(C)=O)c(Oc2cc(NN3CCCCC3)c([N+](=O)[O-])cc2[N+](=O)[O-])c1 | – | inactive
70 | O=C(/C=C\c1ccc2c(c1)OCO2)CC1(O)C(=O)Nc2ccccc21 (stereo not given) | – | inconclusive [inhibitor, single point]
